Each block holds one binder with its values, some of them ahead of it.
Key:
[1] = target: T1, human PSMA expressed on cells (human, UniProt Q04609); assay: FMAT, CHO human PSMA cells
T1 construct: One molecule for both cell lines (CHO human PSMA, DU145 PSMA); the cell line stands under assay; also called CHO human PSMA; CHO PSMA
Procedure: (§1) Binding of His-tagged molecules to CHO human CD137, CHO parent, CHO human PSMA, DU145 PSMA and DU145 parent cells was assessed using Fluorescence Microvolume Assay Technology (FMAT). All reagents were prepared in FMAT assay buffer (pH 7.4) containing PBS, 0.1% Bovine Serum Albumin, 0.05% Sodium Azide. Serially diluted samples were transferred into 384 well black clear-bottomed assay plates (Costar cat. no. 3655) and incubated for a minimum of 2 hours at room temperature with 1.5 nM Anti-His (Millipore cat. no. 05-949), […] Goat Anti-Mouse Alexa Fluor-488 (Jackson ImmunoResearch cat. no. 115-545-071) and 2000 cells/well pre-stained with DRAQ5 (Thermo Scientific cat. no. 62251). Fluorescence emission was then measured on the TTP Mirrorball plate reader in the FL2 (502 nm-537 nm) and FL5 (677-800 nm) channels following excitation at 488 nm and 640 nm. Data was gated on FL5 perimeter and peak intensity and the FL2 median mean fluorescence intensity of the gated data used for determination of VH binding. Monovalent CD137 specific Humabody® VH, bispecific and trispecific molecules with a CD137 binding arm bound to CHO CD137 expressing cells. Monovalent PSMA specific Humabody® VH, bispecific and trispecific molecules with a PSMA binding arm bound to PSMA expressing cells.

[2] = target: T1, human PSMA expressed on cells; assay: FMAT, DU145 PSMA cells
Procedure: as §1

[3] = target: T2, CD137 on pre-stimulated human CD8+ T cells (human, UniProt Q07011 24-255); assay: flow cytometry, PMA/ionomycin-stimulated human CD8+ T cells, mean of 2-3 donors
T2 construct: also called pre-stimulated CD8+ cells; primary T cells
Procedure: Binding to primary T cells was measured using flow cytometry. Peripheral blood mononuclear cells (PBMCs) were isolated from human blood by density gradient centrifugation then CD8+ T cells purified using a negative selection isolation kit according to the manufacturer's protocol (Miltenyi Biotech cat no 130-042-401). T-cells were stimulated PMA/Ionomycin for 48-72 hours in RPMI media supplemented with 10% FBS, 2 mM Glutamine, 1× Pen/Strep. Cells were transferred into 96 well plates, blocked for 10 mins with staining buffer (PBS/1% BSA/0.05% Sodium Azide) then incubated with serially diluted VH in staining buffer (PBS/1% BSA) for 30 mins-1 hour at 4° C. Cells were washed by centrifugation then VH binding detected using Anti His antibody (Millipore 05-949) and Goat Anti Mouse Alexa Fluor-488 (Jackson ImmunoResearch cat no. 115-545-071). A Live Dead near IR stain (Molecular Probes cat no. L10119) was used for discrimination of live cells. After further washing cells were fixed and fluorescence measured by flow cytometry.

[4] = target: T3, human CD137 expressed on the surface of CHO cells (human, UniProt Q07011 24-255); assay: FMAT ligand inhibition, CD137 Ligand on CHO human CD137 cells
T3 construct: Also used for the Jurkat reporter cells that express human CD137 (functional rows); also called CHO human CD137 cells; CHO huCD137
Procedure: In parallel to the binding assay, periplasmic extracts were tested for their ability to inhibit the interaction of human CD137 ligand protein with CHO human CD137 cells in an FMAT format. Total binding controls containing diluted periplasmic extract sample buffer and non-specific binding controls containing excess non-Fc tagged competitor were set up on each plate for data normalisation. Fluorescence signal was measured using the TTP Mirrorball and the FL2 median mean fluorescence intensity of gated used for the data normalisation. The data was expressed as a % of the total binding control (% control) after subtraction of the background signal determined from the non-specific binding control wells.
The ability of purified Humabody VH to inhibit the binding of CD137 Ligand to CHO human CD137 cells was measured in the FMAT ligand inhibition assay essentially as described in Example 6. VH inhibited the binding of human CD137 Ligand to human CD137.

[5] = target: T4, PSMA-his (R&D Systems cat no. 4234-ZN) (human, UniProt Q04609); assay: BLI (Octet RED384), PSMA-his amine-coupled to AR2G sensors, 1:1 model
T4 construct: Bought protein; also called Human PSMA; not shown: His tag
Procedure: (§2) The kinetics of monovalent and bispecific Humabody VH were determined on a ForteBio Octet RED 384 instrument. To study the interaction with the antigens, CD137-Fc tag protein (Acro Biosystems cat no. 41B-H5258) or PSMA-his (R&D Systems cat no. 4234-ZN) was immobilised onto AR2G biosensors (ForteBio cat no. 18-5082) by amine coupling. Monovalent VH and bispecific molecules were serially diluted (typically 1:2 dilution series starting between 12-25 nM, at the highest concentration) in kinetics buffer (0.1% BSA, 0.02% Tween, 1×PBS) and binding to the immobilised proteins was studied during the association and dissociation phases. PSMA binding was measured using 180 seconds association and 600 seconds dissociation phases. CD137 binding was measured 180 seconds association and 600 seconds dissociation phases. Reference subtracted data were fitted to a 1:1 binding model using the ForteBio Octet Data Analysis software.

[6] = target: T5, human CD137-human Fc chimeric protein (Acro Biosystems cat no. 41B-H5258) (human, UniProt Q07011 24-186); assay: BLI (Octet RED384), CD137-Fc amine-coupled to AR2G sensors, 1:1 model
T5 construct: Bought protein; The Octet Protein G and Biacore experiments name no catalogue number; also called human CD137Fc recombinant protein; human CD137-Fc recombinant protein; not shown: human IgG1 Fc tag
Procedure: as §2

[7] = target: T3, human CD137 expressed on the surface of …; assay: FMAT, CHO human CD137 cells
Procedure: as §1

T1 sequence (Q04609 whole entry): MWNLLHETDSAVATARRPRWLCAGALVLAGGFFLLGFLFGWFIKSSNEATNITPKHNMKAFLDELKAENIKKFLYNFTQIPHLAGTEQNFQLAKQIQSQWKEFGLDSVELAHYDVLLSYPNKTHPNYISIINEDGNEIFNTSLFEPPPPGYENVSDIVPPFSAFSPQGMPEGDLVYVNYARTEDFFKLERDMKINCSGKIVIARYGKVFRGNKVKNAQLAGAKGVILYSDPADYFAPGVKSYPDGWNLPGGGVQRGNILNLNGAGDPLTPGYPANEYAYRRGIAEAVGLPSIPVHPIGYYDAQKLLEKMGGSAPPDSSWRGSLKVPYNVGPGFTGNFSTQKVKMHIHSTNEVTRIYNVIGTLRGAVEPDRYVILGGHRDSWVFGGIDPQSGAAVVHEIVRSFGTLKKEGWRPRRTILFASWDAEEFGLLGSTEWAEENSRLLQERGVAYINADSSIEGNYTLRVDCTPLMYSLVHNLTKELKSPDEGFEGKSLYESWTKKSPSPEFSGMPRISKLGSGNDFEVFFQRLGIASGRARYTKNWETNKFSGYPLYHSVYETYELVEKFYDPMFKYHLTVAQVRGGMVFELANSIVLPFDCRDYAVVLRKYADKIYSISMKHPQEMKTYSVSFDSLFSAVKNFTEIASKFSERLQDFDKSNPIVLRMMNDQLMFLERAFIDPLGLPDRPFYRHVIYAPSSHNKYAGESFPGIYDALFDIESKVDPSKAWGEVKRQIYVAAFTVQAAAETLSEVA

B1: 3.8-6GS-1.1 (bispecific antibody)
chain: EVQLLESGGGLVQPGGSLRLSCAASGFSFSSYALSWVRQAPGKGLEWVSSIGENDGTTDYAD[not shown - about 20 residues]MNSLRVEDTAVYYCVKDGVHWGQGTLVTVSSGGGGSGGGGSGGGGSGGGGSGGGGSGGGGSEVQLVESGGGLVQPGGSLRLSCAASGFTFSSHWMTWFRQAPGKGLEWVAHIKEDGSEKYYEDSVEGRFTVSRDNAKNSVYLQMNSLRAEDTAVYYCARGGDGYSDSHFGVDVWGQGTTVTVSS
notes: tandem VH, PSMA x CD137; not shown: His tag
- EC50 [1]: 0.6 nM
- EC50 [2]: 0.68 nM
- EC50 [3]: 1.1 nM
- IC50 [4]: 1.7 nM
- Kd [5]: 5.7 nM
- koff [5]: 0.0017 s⁻¹
- kon [5]: 300000 M⁻¹ s⁻¹
- Kd [6]: 0.56 nM
- koff [6]: 0.00029 s⁻¹
- kon [6]: 490000 M⁻¹ s⁻¹
- EC50 [7]: 0.56 nM

B4: 1.1-6GS-3.8 (bispecific antibody)
chain: EVQLVESGGGLVQPGGSLRLSCAASGFTFSSHWMTWFRQAPGKGLEWVAHIKEDGSEKYYEDSVEGRFTVSRDNAKNSVYLQMNSLRAEDTAVYYCARGGDGYSDSHFGVDVWGQGTTVTVSSGGGGSGGGGSGGGGSGGGGSGGGGSGGGGSEVQLLESGGGLVQPGGSLRLSCAASGFSFSSYALSWVRQAPGKGLEWVSSIGENDGTTDYAD[not shown - about 20 residues]MNSLRVEDTAVYYCVKDGVHWGQGTLVTVSS
notes: built from its printed name (1.1, 6GS linker, 3.8); not shown: His tag
- EC50 [1]: 0.63 nM
- EC50 [2]: 0.81 nM
- IC50 [4]: 1.3 nM
- EC50 [7]: 0.56 nM

Results, then the binder that gave them:

- EC50 [1]: 0.59 nM
- EC50 [2]: 0.82 nM
- EC50 [7]: 0.59 nM
B2: 3.8-6GS-1.1-6GS-MSA (bispecific antibody)
chain: EVQLLESGGGLVQPGGSLRLSCAASGFSFSSYALSWVRQAPGKGLEWVSSIGENDGTTDYAD[not shown - about 20 residues]MNSLRVEDTAVYYCVKDGVHWGQGTLVTVSSGGGGSGGGGSGGGGSGGGGSGGGGSGGGGSEVQLVESGGGLVQPGGSLRLSCAASGFTFSSHWMTWFRQAPGKGLEWVAHIKEDGSEKYYEDSVEGRFTVSRDNAKNSVYLQMNSLRAEDTAVYYCARGGDGYSDSHFGVDVWGQGTTVTVSSGGGGSGGGGSGGGGSGGGGSGGGGSGGGGSQVQLVESGGGLVQPGGSLRLSCAASGFTFSSYAMSWVRQAPGKGLEWVATISDSGSSADYADSVKGRFTISRDNSKNTLYLQMNSLRAEDTAVYYCARGRYNWNPRALGIWGQGTMVTVSS
notes: trispecific tandem VH (PSMA, CD137, mouse serum albumin); also called 3.8-6GS-1.1-VH (MSA); not shown: His tag

- EC50 [1]: 0.23 nM
- EC50 [2]: 0.29 nM
- Kd [5]: 0.9 nM
- koff [5]: 0.00035 s⁻¹
- kon [5]: 390000 M⁻¹ s⁻¹
B3: PSMA binding single VH domain antibody 3.8 (VHH)
VHH: EVQLLESGGGLVQPGGSLRLSCAASGFSFSSYALSWVRQAPGKGLEWVSSIGENDGTTDYAD[not shown - about 20 residues]MNSLRVEDTAVYYCVKDGVHWGQGTLVTVSS
notes: human single VH domain, PSMA specific
